Source: paper PMC4820845
Results are given in words; binding and its absence hold for the method and conditions named. In cells and extracts the contact can be indirect. Some entries that bind do so weakly or less than the wild type. Sequences can lack the tags named with a protein.

By UniProt entry, the sequences of proteins in these tests, tags left out. Where a name states a change or a piece, a line headed by the entry shows the natural chain unless it says otherwise. Chains listed by the source or under a name are the forms on record and can include a tag or linker. Residues count along the entry.
UniProt P01106: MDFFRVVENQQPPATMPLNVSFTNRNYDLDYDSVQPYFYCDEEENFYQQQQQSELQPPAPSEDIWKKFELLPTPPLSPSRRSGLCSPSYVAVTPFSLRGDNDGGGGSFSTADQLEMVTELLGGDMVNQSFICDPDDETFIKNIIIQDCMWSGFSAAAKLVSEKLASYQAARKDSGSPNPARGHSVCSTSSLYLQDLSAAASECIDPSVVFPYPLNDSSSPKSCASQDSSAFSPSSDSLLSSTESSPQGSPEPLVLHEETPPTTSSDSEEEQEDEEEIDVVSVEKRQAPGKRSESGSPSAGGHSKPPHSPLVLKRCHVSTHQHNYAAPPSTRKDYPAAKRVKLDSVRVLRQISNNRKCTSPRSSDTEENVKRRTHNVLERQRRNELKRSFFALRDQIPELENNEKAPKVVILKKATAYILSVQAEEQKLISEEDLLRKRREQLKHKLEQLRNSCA
Myc-tagged c-Myc: residues 16-454 of P01106
HA-tagged c-Myc DNA-binding domain (aa 143-355): residues 158-370 of P01106
UniProt P61088: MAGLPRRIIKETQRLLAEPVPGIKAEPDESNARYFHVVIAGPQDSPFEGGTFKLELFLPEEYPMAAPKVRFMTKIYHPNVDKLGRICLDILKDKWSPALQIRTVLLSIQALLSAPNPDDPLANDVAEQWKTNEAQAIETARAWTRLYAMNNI
UniProt P61086: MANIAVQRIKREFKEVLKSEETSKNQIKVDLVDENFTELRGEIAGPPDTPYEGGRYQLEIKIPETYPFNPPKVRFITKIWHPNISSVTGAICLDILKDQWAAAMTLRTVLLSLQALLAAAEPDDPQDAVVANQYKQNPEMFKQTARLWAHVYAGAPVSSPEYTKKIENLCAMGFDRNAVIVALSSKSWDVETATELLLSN
UniProt P62256: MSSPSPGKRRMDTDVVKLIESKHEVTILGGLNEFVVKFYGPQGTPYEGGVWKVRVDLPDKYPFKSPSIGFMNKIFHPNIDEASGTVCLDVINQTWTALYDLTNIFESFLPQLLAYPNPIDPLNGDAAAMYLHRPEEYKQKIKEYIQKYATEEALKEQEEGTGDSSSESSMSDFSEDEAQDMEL
UniProt P49427: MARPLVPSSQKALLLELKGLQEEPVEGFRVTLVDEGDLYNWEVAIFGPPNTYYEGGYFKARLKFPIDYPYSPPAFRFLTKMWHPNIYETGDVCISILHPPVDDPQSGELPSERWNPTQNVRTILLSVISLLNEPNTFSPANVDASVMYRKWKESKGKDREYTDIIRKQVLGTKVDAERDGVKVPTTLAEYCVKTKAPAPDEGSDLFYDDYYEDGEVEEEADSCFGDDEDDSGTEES
UniProt O14933: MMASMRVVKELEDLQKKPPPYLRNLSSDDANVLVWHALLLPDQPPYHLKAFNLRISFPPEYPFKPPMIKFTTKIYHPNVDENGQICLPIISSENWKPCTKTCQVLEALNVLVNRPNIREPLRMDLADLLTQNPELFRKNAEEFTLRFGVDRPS
UniProt O00762: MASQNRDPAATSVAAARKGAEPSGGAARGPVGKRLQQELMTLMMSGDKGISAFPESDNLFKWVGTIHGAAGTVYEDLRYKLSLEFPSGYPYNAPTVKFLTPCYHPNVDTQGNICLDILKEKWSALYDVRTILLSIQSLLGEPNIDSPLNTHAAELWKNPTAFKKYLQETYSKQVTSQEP

T1: Flag-ELL (human) (UniProt P55199)
T1 sequence: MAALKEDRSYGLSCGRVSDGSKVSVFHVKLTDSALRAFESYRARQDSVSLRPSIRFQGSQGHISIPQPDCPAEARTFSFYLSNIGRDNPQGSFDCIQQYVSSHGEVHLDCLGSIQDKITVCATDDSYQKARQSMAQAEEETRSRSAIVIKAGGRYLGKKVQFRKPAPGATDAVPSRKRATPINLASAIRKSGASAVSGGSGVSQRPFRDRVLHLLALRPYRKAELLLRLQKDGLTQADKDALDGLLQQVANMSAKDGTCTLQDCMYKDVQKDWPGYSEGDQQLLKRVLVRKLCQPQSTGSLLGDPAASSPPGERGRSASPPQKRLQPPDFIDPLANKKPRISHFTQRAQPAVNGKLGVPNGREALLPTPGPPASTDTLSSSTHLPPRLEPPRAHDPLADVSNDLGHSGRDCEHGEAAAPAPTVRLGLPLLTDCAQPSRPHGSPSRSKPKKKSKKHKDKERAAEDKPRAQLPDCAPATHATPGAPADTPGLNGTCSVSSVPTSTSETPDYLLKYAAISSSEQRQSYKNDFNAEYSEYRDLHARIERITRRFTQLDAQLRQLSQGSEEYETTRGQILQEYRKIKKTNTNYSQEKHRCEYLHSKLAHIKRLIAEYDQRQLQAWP

T2: ELL (tag not told for this experiment) (human) (UniProt P55199)
T2 sequence: T1 sequence

B1: HA-ELL (protein, UniProt P55199 1-621)
chain: T1 sequence

Each molecule was assayed against T1, Flag-ELL (human) (assay: co-IP; tagged proteins overexpressed by co-transfection in HEK293 or HEK293T cells; antibody-conjugated agarose beads (anti-c-Myc, anti-HA, anti-Flag); 2-3 times more HA-c-Myc plasmid where ELL was co-transfected).

| Molecule | binding |
| --- | --- |
| HA-c-Myc (from UniProt P01106-1 1-439) | binds |
| HA-tagged c-Myc DNA-binding domain (aa 143-355) (from UniProt P01106-1 143-355) (domain or fragment) | no binding |

The molecules below were run against Myc-tagged c-Myc (human) (UniProt P01106) in the same assay as above.

| Molecule | binding |
| --- | --- |
| B1 | binds |

These molecules were tested against T2, ELL (tag not told for this experiment) (human) (assay: co-IP; ELL and 11 E2 enzymes cloned into the CMV-Myc expression vector; cells and the tag of ELL not told).

| Molecule | binding |
| --- | --- |
| Ubc13 (from UniProt P61088 1-152) (enzyme) | no binding |
| UbcH1 (from UniProt P61086 1-200) (enzyme) | no binding |
| UbcH2 (from UniProt P62256 1-183) (enzyme) | no binding |
| UbcH3 (from UniProt P49427 1-236) (enzyme) | no binding |
| UbcH8 (from UniProt O14933 1-153) (enzyme) | binds |
| UbcH10 (from UniProt O00762 1-179) (enzyme) | no binding |
